# This is one part of the list.
# Experiments:
# Experiment in all cases: glycan array binding signal (z-score within array); higher = stronger binding
# Conditions in all cases: glycan notation: IUPAC condensed, linker removed
# [1] = target: GlcA3S(b1-3)Gal(b1-4)GlcNAc(b1-3)Gal(b1-4)Glc
# Outline: (§1)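 Arrays were curated from the Consortium for Functional Glycomics database, 3228 in total, and kept only where the protein sequence was available. Binding is expressed as a within-array Z-score. This score was averaged across arrays of the same protein sequence at different concentrations or buffers and across linkers, and negative values can be read as non-binding.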
# [2] = target: GlcNAc(a1-3)Gal(b1-4)GlcNAc
# Outline: as §1
# [3] = target: GlcNAc(a1-4)Gal(b1-3)GlcNAc
# Outline: as §1
# [4] = target: GlcNAc(a1-4)Gal(b1-4)GalNAc
# Outline: as §1
# [5] = target: GlcNAc(a1-4)Gal(b1-4)GlcNAc
# Outline: as §1
# [6] = target: GlcNAc(a1-4)Gal(b1-4)GlcNAc(b1-3)Gal(b1-4)Glc
# Outline: as §1
# [7] = target: GlcNAc(a1-4)Gal(b1-4)GlcNAc(b1-3)Gal(b1-4)GlcNAc
# Outline: as §1
# [8] = target: GlcNAc(a1-4)Gal(b1-4)GlcNAc(b1-3)Gal(b1-4)GlcNAc(b1-3)Gal(b1-4)GlcNAc
# Outline: as §1
# [9] = target: GlcNAc(a1-4)Gal(b1-4)GlcNAc(b1-3)Gal(b1-4)[Fuc(a1-3)]GlcNAc(b1-3)Gal(b1-4)[Fuc(a1-3)]GlcNAc
# Outline: as §1
# [10] = target: GlcNAc(a1-6)Gal(b1-4)GlcNAc
# Outline: as §1
# [11] = target: GlcNAc(b1-2)Gal(b1-3)GalNAc
# Outline: as §1
# [12] = target: GlcNAc(b1-2)Man(a1-3)[GlcNAc(b1-2)Man(a1-6)]Man(b1-4)GlcNAc(b1-4)GlcNAc
# Outline: as §1
# [13] = target: GlcNAc(b1-2)Man(a1-3)[GlcNAc(b1-2)Man(a1-6)]Man(b1-4)GlcNAc(b1-4)[Fuc(a1-6)]GlcNAc
# Outline: as §1
# [14] = target: GlcNAc(b1-2)Man(a1-3)[GlcNAc(b1-4)][GlcNAc(b1-2)Man(a1-6)]Man(b1-4)GlcNAc(b1-4)GlcNAc
# Outline: as §1
# [15] = target: GlcNAc(b1-2)Man(a1-3)[GlcNAc(b1-4)][GlcNAc(b1-2)Man(a1-6)]Man(b1-4)GlcNAc(b1-4)[Fuc(a1-6)]GlcNAc
# Outline: as §1
# [16] = target: GlcNAc(b1-2)[GlcNAc(b1-4)]Man(a1-3)[GlcNAc(b1-2)Man(a1-6)]Man(b1-4)GlcNAc(b1-4)GlcNAc
# Outline: as §1
# [17] = target: GlcNAc(b1-2)[GlcNAc(b1-4)]Man(a1-3)[GlcNAc(b1-4)][GlcNAc(b1-2)Man(a1-6)]Man(b1-4)GlcNAc(b1-4)GlcNAc
# Outline: as §1
# [18] = target: GlcNAc(b1-2)[GlcNAc(b1-4)]Man(a1-3)[GlcNAc(b1-4)][GlcNAc(b1-2)[GlcNAc(b1-6)]Man(a1-6)]Man(b1-4)GlcNAc(b1-4)GlcNAc
# Outline: as §1
# [19] = target: GlcNAc(b1-2)[GlcNAc(b1-4)]Man(a1-3)[GlcNAc(b1-4)][GlcNAc(b1-2)[GlcNAc(b1-6)]Man(a1-6)]Man(b1-4)GlcNAc(b1-4)[Fuc(a1-6)]GlcNAc
# Outline: as §1
# [20] = target: GlcNAc(b1-2)[GlcNAc(b1-6)]Man(a1-6)[GlcNAc(b1-2)Man(a1-3)]Man(b1-4)GlcNAc(b1-4)GlcNAc
# Outline: as §1
# [21] = target: GlcNAc(b1-2)[GlcNAc(b1-6)]Man(a1-6)[GlcNAc(b1-2)Man(a1-3)]Man(b1-4)GlcNAc(b1-4)[Fuc(a1-6)]GlcNAc
# Outline: as §1
# [22] = target: GlcNAc(b1-2)[GlcNAc(b1-6)]Man(a1-6)[GlcNAc(b1-4)][GlcNAc(b1-2)Man(a1-3)]Man(b1-4)GlcNAc(b1-4)GlcNAc
# Outline: as §1
# GlcNAc(b1-3)Fuc = target: GlcNAc(b1-3)Fuc
# Outline: as §1
# GlcNAc(b1-3)Gal = target: GlcNAc(b1-3)Gal
# Outline: as §1
# [23] = target: GlcNAc(b1-3)Gal(b1-3)GalNAc
# Outline: as §1
# GlcNAc(b1-3)Gal(b1-4)Glc = target: GlcNAc(b1-3)Gal(b1-4)Glc
# Outline: as §1
# [24] = target: GlcNAc(b1-3)Gal(b1-4)GlcNAc
# Outline: as §1
# [25] = target: GlcNAc(b1-3)Gal(b1-4)GlcNAc(b1-2)Man(a1-3)[GlcNAc(b1-3)Gal(b1-4)GlcNAc(b1-2)Man(a1-6)]Man(b1-4)GlcNAc(b1-4)GlcNAc
# Outline: as §1
# [26] = target: GlcNAc(b1-3)Gal(b1-4)GlcNAc(b1-2)Man(a1-3)[GlcNAc(b1-3)Gal(b1-4)GlcNAc(b1-2)Man(a1-6)]Man(b1-4)GlcNAc(b1-4)[Fuc(a1-6)]GlcNAc
# Outline: as §1
# [27] = target: GlcNAc(b1-3)Gal(b1-4)GlcNAc(b1-2)[GlcNAc(b1-3)Gal(b1-4)GlcNAc(b1-6)]Man(a1-6)[GlcNAc(b1-3)Gal(b1-4)GlcNAc(b1-2)Man(a1-3)]Man(b1-4)GlcNAc(b1-4)GlcNAc
# Outline: as §1
# [28] = target: GlcNAc(b1-3)Gal(b1-4)GlcNAc(b1-3)Gal(b1-4)GlcNAc
# Outline: as §1
# [29] = target: GlcNAc(b1-3)Gal(b1-4)GlcNAc(b1-3)Gal(b1-4)GlcNAc(b1-2)Man(a1-3)[GlcNAc(b1-3)Gal(b1-4)GlcNAc(b1-3)Gal(b1-4)GlcNAc(b1-2)Man(a1-6)]Man(b1-4)GlcNAc(b1-4)GlcNAc
# Outline: as §1
# [30] = target: GlcNAc(b1-3)Gal(b1-4)GlcNAc(b1-3)Gal(b1-4)GlcNAc(b1-2)Man(a1-3)[GlcNAc(b1-3)Gal(b1-4)GlcNAc(b1-3)Gal(b1-4)GlcNAc(b1-2)Man(a1-6)]Man(b1-4)GlcNAc(b1-4)[Fuc(a1-6)]GlcNAc
# Outline: as §1
# [31] = target: GlcNAc(b1-3)Gal(b1-4)GlcNAc(b1-3)Gal(b1-4)GlcNAc(b1-2)[GlcNAc(b1-3)Gal(b1-4)GlcNAc(b1-3)Gal(b1-4)GlcNAc(b1-6)]Man(a1-6)[GlcNAc(b1-3)Gal(b1-4)GlcNAc(b1-3)Gal(b1-4)GlcNAc(b1-2)Man(a1-3)]Man(b1-4)GlcNAc(b1-4)[Fuc(a1-6)]GlcNAc
# Outline: as §1
# [32] = target: GlcNAc(b1-3)Gal(b1-4)GlcNAc(b1-3)Gal(b1-4)GlcNAc(b1-3)Gal(b1-4)GlcNAc(b1-2)Man(a1-3)[GlcNAc(b1-3)Gal(b1-4)GlcNAc(b1-3)Gal(b1-4)GlcNAc(b1-3)Gal(b1-4)GlcNAc(b1-2)Man(a1-6)]Man(b1-4)GlcNAc(b1-4)GlcNAc
# Outline: as §1
# [33] = target: GlcNAc(b1-3)Gal(b1-4)GlcNAc(b1-3)Gal(b1-4)GlcNAc(b1-3)Gal(b1-4)GlcNAc(b1-2)Man(a1-3)[GlcNAc(b1-3)Gal(b1-4)GlcNAc(b1-3)Gal(b1-4)GlcNAc(b1-3)Gal(b1-4)GlcNAc(b1-2)Man(a1-6)]Man(b1-4)GlcNAc(b1-4)[Fuc(a1-6)]GlcNAc
# Outline: as §1
# [34] = target: GlcNAc(b1-3)Gal(b1-4)GlcNAc(b1-3)Gal(b1-4)GlcNAc(b1-3)Gal(b1-4)GlcNAc(b1-2)[GlcNAc(b1-3)Gal(b1-4)GlcNAc(b1-3)Gal(b1-4)GlcNAc(b1-3)Gal(b1-4)GlcNAc(b1-6)]Man(a1-6)[GlcNAc(b1-3)Gal(b1-4)GlcNAc(b1-3)Gal(b1-4)GlcNAc(b1-3)Gal(b1-4)GlcNAc(b1-2)Man(a1-3)]Man(b1-4)GlcNAc(b1-4)[Fuc(a1-6)]GlcNAc
# Outline: as §1
# [35] = target: GlcNAc(b1-3)Gal(b1-4)GlcNAc(b1-3)Gal(b1-4)GlcNAc(b1-3)Gal(b1-4)GlcNAc(b1-3)Gal(b1-4)GlcNAc(b1-2)Man(a1-3)[GlcNAc(b1-3)Gal(b1-4)GlcNAc(b1-3)Gal(b1-4)GlcNAc(b1-3)Gal(b1-4)GlcNAc(b1-3)Gal(b1-4)GlcNAc(b1-2)Man(a1-6)]Man(b1-4)GlcNAc(b1-4)GlcNAc
# Outline: as §1
# [36] = target: GlcNAc(b1-3)Gal(b1-4)GlcNAc(b1-3)Gal(b1-4)GlcNAc(b1-3)Gal(b1-4)GlcNAc(b1-3)Gal(b1-4)GlcNAc(b1-2)Man(a1-3)[GlcNAc(b1-3)Gal(b1-4)GlcNAc(b1-3)Gal(b1-4)GlcNAc(b1-3)Gal(b1-4)GlcNAc(b1-3)Gal(b1-4)GlcNAc(b1-2)Man(a1-6)]Man(b1-4)GlcNAc(b1-4)[Fuc(a1-6)]GlcNAc
# Outline: as §1
# [37] = target: GlcNAc(b1-3)Gal(b1-4)GlcNAc(b1-3)Gal(b1-4)GlcNAc(b1-3)Gal(b1-4)GlcNAc(b1-3)Gal(b1-4)GlcNAc(b1-2)[GlcNAc(b1-3)Gal(b1-4)GlcNAc(b1-3)Gal(b1-4)GlcNAc(b1-3)Gal(b1-4)GlcNAc(b1-3)Gal(b1-4)GlcNAc(b1-6)]Man(a1-6)[GlcNAc(b1-3)Gal(b1-4)GlcNAc(b1-3)Gal(b1-4)GlcNAc(b1-3)Gal(b1-4)GlcNAc(b1-3)Gal(b1-4)GlcNAc(b1-2)Man(a1-3)]Man(b1-4)GlcNAc(b1-4)[Fuc(a1-6)]GlcNAc
# Outline: as §1
# [38] = target: GlcNAc(b1-3)Gal(b1-4)GlcNAc(b1-3)Gal(b1-4)GlcNAc(b1-3)GalNAc
# Outline: as §1
# [39] = target: GlcNAc(b1-3)Gal(b1-4)GlcNAc(b1-3)GalNAc
# Outline: as §1
# [40] = target: GlcNAc(b1-3)Gal(b1-4)GlcNAc(b1-3)[GlcNAc(b1-3)Gal(b1-4)GlcNAc(b1-3)]GalNAc
# Outline: as §1
# [41] = target: GlcNAc(b1-3)Gal(b1-4)GlcNAc(b1-6)[Gal(b1-3)]GalNAc
# Outline: as §1
# [42] = target: GlcNAc(b1-3)Gal(b1-4)GlcNAc(b1-6)[GlcNAc(b1-3)Gal(b1-3)]GalNAc
# Outline: as §1
binder,measurement,setting,value
WGA (Triticum vulgare) (protein) QRCGEQGSNMECPNNLCCSQYGYCGMGGDYCGKGCQNGACWTSKRCGSQAGGATCPNNHCCSQYGHCGFGAEYCGAGCQGGPCRADIKCGSQSGGKLCPNNLCCSQWGFCGLGSEFCGGGCQSGACSTDKPCGKDAGGRVCTNNYCCSKWGSCGIGPGYCGAGCQSGGCDAVFAGAITANSTLLAE,glycan array binding signal (z-score),[1],-0.339
same,glycan array binding signal (z-score),[2],2.52
same,glycan array binding signal (z-score),[3],1.59
same,glycan array binding signal (z-score),[4],1.14
same,glycan array binding signal (z-score),[5],2.77
same,glycan array binding signal (z-score),[6],2.56
same,glycan array binding signal (z-score),[7],2.55
same,glycan array binding signal (z-score),[8],3.16
same,glycan array binding signal (z-score),[9],2.13
same,glycan array binding signal (z-score),[10],-0.033
same,glycan array binding signal (z-score),[11],0.54
same,glycan array binding signal (z-score),[12],0.461
same,glycan array binding signal (z-score),[13],-0.336
same,glycan array binding signal (z-score),[14],1.9
same,glycan array binding signal (z-score),[15],1.84
same,glycan array binding signal (z-score),[16],-0.301
same,glycan array binding signal (z-score),[17],0.428
same,glycan array binding signal (z-score),[18],-0.086
same,glycan array binding signal (z-score),[19],-0.323
same,glycan array binding signal (z-score),[20],-0.176
same,glycan array binding signal (z-score),[21],-0.261
same,glycan array binding signal (z-score),[22],0.751
same,glycan array binding signal (z-score),GlcNAc(b1-3)Fuc,0.327
same,glycan array binding signal (z-score),GlcNAc(b1-3)Gal,-0.316
same,glycan array binding signal (z-score),[23],-0.313
same,glycan array binding signal (z-score),GlcNAc(b1-3)Gal(b1-4)Glc,-0.11
same,glycan array binding signal (z-score),[24],1.25
same,glycan array binding signal (z-score),[25],1.29
same,glycan array binding signal (z-score),[26],1.15
same,glycan array binding signal (z-score),[27],1.43
same,glycan array binding signal (z-score),[28],1.71
same,glycan array binding signal (z-score),[29],1.24
same,glycan array binding signal (z-score),[30],1.49
same,glycan array binding signal (z-score),[31],2.17
same,glycan array binding signal (z-score),[32],2.28
same,glycan array binding signal (z-score),[33],1.6
same,glycan array binding signal (z-score),[34],2.47
same,glycan array binding signal (z-score),[35],2.29
same,glycan array binding signal (z-score),[36],1.81
same,glycan array binding signal (z-score),[37],2.45
same,glycan array binding signal (z-score),[38],-0.207
same,glycan array binding signal (z-score),[39],-0.359
same,glycan array binding signal (z-score),[40],-0.072
same,glycan array binding signal (z-score),[41],-0.267
same,glycan array binding signal (z-score),[42],-0.049

# From the supplement of paper PMC8728848
